Measured values as given in PubChem BioAssay AID1645887 (National Center for Advancing Translational Sciences (NCATS), 2021).
Where “and” joins values, the source holds several entries; their conditions need not be identical. Equal entries are not always repeated. Out of some 16,000 compounds screened, about 40 (0.2%) were called active. Another 1% or so got no clear call; they are omitted. The call rests on the fitted dose curve; in most records, active means well fitted activation curve with a large enough effect; inconclusive means small, poorly fitted or top-dose-only effect, or another doubt; inactive means no such curve, though single readings can be large or run the other way. The list shows a part of the results. Non-standard residues stand in square brackets, D forms with d. Residues, ends and D or L forms follow the SMILES beside them. Orn = NCCC[C@H](N)C(=O)O

target: Rap guanine nucleotide exchange factor 4 (Homo sapiens) (UniProt Q8WZA2); assay: Validation qHTS for agonist of cAMP-regulated guanine nucleotide exchange factor 4 (EPAC2); conditions: EPAC2 Rap1B BODIPY-GDP exchange, fluorescence; activation: active compounds read high;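 further: exchange makes BODIPY-GDP fluorescence drop when released from Rap1B; series mostly up to about 150 µM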
UniProt Q8WZA2, sequence (Q8WZA2 whole entry, looked up): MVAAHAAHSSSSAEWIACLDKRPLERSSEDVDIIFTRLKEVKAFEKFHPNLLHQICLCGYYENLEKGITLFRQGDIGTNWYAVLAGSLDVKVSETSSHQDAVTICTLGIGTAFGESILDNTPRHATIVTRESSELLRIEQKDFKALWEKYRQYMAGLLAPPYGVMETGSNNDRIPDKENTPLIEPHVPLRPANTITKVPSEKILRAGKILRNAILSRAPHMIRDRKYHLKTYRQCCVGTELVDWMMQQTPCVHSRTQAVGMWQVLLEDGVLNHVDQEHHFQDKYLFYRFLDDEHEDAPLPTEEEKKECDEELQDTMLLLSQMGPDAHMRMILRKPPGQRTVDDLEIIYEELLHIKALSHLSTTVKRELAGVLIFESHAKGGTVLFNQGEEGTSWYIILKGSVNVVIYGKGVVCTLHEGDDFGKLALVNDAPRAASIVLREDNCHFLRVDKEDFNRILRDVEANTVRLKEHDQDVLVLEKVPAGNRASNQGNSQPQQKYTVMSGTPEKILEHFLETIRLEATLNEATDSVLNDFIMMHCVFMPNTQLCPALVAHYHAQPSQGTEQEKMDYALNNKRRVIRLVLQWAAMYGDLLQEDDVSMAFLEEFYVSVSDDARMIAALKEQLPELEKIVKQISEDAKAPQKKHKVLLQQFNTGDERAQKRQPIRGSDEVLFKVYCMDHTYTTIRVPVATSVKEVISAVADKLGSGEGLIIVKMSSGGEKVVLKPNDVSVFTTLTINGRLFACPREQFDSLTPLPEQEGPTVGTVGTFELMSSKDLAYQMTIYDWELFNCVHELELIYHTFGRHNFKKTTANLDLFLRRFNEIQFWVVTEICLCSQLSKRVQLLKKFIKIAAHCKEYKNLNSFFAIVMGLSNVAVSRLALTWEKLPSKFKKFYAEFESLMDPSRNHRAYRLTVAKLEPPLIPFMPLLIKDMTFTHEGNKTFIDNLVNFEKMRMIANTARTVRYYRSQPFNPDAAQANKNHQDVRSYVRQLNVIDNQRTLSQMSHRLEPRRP
How it was run: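 Fluorescent exchange assay: 100 nM EPAC2 with 250 nM RAP1B-BODIPY-GDP and 50 uM GDP; compound added, 5 min at room temperature, then read (ex 480/em 540 nm) every 5 min for 30 min. Normalized to 6.5 mM cAMP agonist control.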
On the % scale 0 is the no-effect control and ±100 the full control effect.

activation, inactive:
C[N+](C)(CCCCCC[N+](C)(C)CCCN1C(=O)c2ccccc2C1=O)CCCN1C(=O)c2ccccc2C1=O -22% and 3.46%
CN(C)C(=O)c1ccc(-c2nc(Nc3ccc(F)cc3)c3ccccc3n2)cc1 -16.6%
COCCNc1nc(-c2c(C)noc2C)nc2ccccc12 -8.96%
COc1cccc(-c2cc3c(c(OC)c2)OCCN(Cc2ccccc2O)C3)n1 -25%
NNc1nnc(Cc2ccncc2)c2ccccc12 -16.2%
CC/C(=C(/CC)c1ccc(OP(=O)(O)O)cc1)c1ccc(OP(=O)(O)O)cc1 -1.97%
COc1ncc2nc(-c3ccc(F)cc3)c(=O)n(CCC#N)c2n1 -8.21%
C[C@H]1[C@@H](OC(=O)CCC(=O)O)O[C@@H]2OC3(C)CC[C@H]4[C@H](C)CC[C@@H]1[C@@]24OO3 -24.4%
CCCCCc1ccc(-c2cn(CCCOCc3ccccc3)nn2)cc1 -35%
CC(C)(O/N=C(\C(=O)N[C@@H]1C(=O)N2C(C(=O)[O-])=C(C[n+]3ccccc3)CS[C@H]12)c1csc(N)n1)C(=O)O -0.564%
C[C@@H](O)[C@H](N)C(=O)O -27.3%
O=C1[O][Bi][O]c2ccccc21 -12.6%
Cc1c(C(=O)N(C)C(C)C)sc2ncnc(NCCCN3CCOCC3)c12 -4.06%
Cc1ccc(/C(=C\CN2CCCC2)c2ccccn2)cc1 8.17% and 0.149% and -21.8%
COC(=O)c1cc(Br)ccc1N(Cc1cc(OC)cc(OC)c1)S(C)(=O)=O -46.1%
CN1CCCC2(CCN(C(=O)c3cnccn3)CC2)C1 5.61%
CN(Cc1cccc2ncccc12)C(=O)c1cnn(-c2ncc3c(n2)-c2ccccc2CC3)c1C1CC1 1.68%
COc1ccc(-n2c(=O)c(-c3cccc(Cl)c3)nc3cncnc32)cc1 2.94%
CN(C)c1ncc2nc(-c3ccccc3)c(=O)n(-c3ccccc3)c2n1 -5.96%
Cc1ncc2c(c1CNC(=O)c1ccc3c(c1)OCO3)CCN(C(=O)c1cn3ccccc3n1)C2 -2.93%
O=c1onc2n1-c1cc(Br)ccc1OC2 -19.5%
O=c1cnc2cnc(Nc3ccccc3)nc2n1CCc1ccccc1 -6.28%
COc1ccccc1C(=O)O[C@H]1[C@H](Cc2ccccc2)NS(=O)(=O)[C@H]2C[C@@H]3C=C[C@]12O3 -37.5%
C=C1Cc2c(Cl)cc3[nH]c4c5c3c2[C@@]2(O)[C@@H]1C[C@@H]2C(C)(C)O[C@H]5[C@@H]1CC[C@@]2(O)[C@@]35O[C@@H]3[C@@H](O)[C@@H](C(=O)O)O[C@H]5CC[C@]2(C)[C@@]41C -9.97%
CN(C)c1ccc(/C=C/c2ccc3cc(N(C)C)ccc3n2)cc1 0.661%
CCOC(=O)COc1ccc2c(C)c(CCN(CC)CC)c(=O)oc2c1Cl 10%
CC1=C(/C=C/C(C)=C/C=C/C(C)=C/C(=O)O)C(C)(C)CCC1O (stereo not drawn) -10.1%
O=S(=O)(c1ccccc1)N1CCC2(CCN(Cc3ccncc3)CC2)CC1 -3.04%
Cc1ncc(-c2ccc(F)cc2)c(C2CCCN(Cc3cccc(O)c3)C2)n1 (stereo not drawn) -4.98%
COc1ccc(C2CC(=O)c3ccc(OC)cc3O2)cc1 (stereo not drawn) -7.56%
OC[C@H]1O[C@@H](OCCc2ccc(O)cc2)[C@H](O)[C@@H](O)[C@@H]1O -19.7%
O=C(/C=C/c1ccc(O)c(O)c1)NC(=O)c1ccccc1O -13.9%
C[C@@H](O[C@H]1OCCN(Cc2n[nH]c(=O)[nH]2)[C@@H]1c1ccc(F)cc1)c1cc(C(F)(F)F)cc(C(F)(F)F)c1 -57.3%
Cc1c(O)cc(O)c2c(=O)c(-c3ccc(O)cc3)coc12 2.29%
CNCCC=C1c2ccccc2CCc2ccccc21 0.43% and -4.08% and -32.9%
COc1cc(CNC(=O)CCCC/C=C\C(C)C)ccc1O -23.3% and -40.2%
CCN1CCCC1CNC(=O)c1cnn(-c2nccc(-c3ccco3)n2)c1C1CC1 (stereo not drawn) -1.8%
CN(Cc1ccco1)c1ncncc1-c1cccnc1 -1.15%
CCOC(=O)C(CCc1ccccc1)NC(C)C(=O)N1CCCC1C(=O)O (stereo not drawn) 0.999%
CC(C)C[C@@H]1NC(=O)[C@H](CCCN)NC(=O)[C@H](C(C)C)NC(=O)[C@@H]2CCCN2C(=O)[C@@H](Cc2ccccc2)NC(=O)[C@H](CC(C)C)NC(=O)[C@H](CCCN)NC(=O)[C@H](C(C)C)NC(=O)[C@@H]2CCCN2C(=O)[C@@H](Cc2ccccc2)NC1=O (cyclo(V[Orn]L[dF]PV[Orn]L[dF]P)) -44.7%
COc1ccc(OC)c(-c2ccnc(-n3ncc(C(=O)N4CCN(CCO)CC4)c3C3CC3)n2)c1 -6.43%
COc1ccccc1CCn1c(=O)c(-c2ccccc2)nc2cncnc21 -0.54%
COC(=O)CNC(=O)c1cnn(-c2ncc3c(n2)-c2ccccc2CCC3)c1C1CC1 -9.57%
O=C(c1ccncc1)N1CCC[C@@]2(CCN(Cc3cc(C(F)(F)F)cc(C(F)(F)F)c3)C2)C1 -33.8%
CCc1cc(C(N)=S)ccn1 -4.82% and -4.81%
Cc1noc(C)c1-c1nccc(N2CCOCC2)n1 -5.32%
Cc1cc(=S)[nH]c2ccccc12 -17.1%
CN(C)C(=O)c1ccc(-c2cncnc2NC2CCNCC2)cc1 -5.98%
O=C(CCc1c[nH]c2ccccc12)N1CCC(n2c(C3CCCO3)nc3cc(C(F)(F)F)ccc32)CC1 (stereo not drawn) -21.2%
O=C(c1csnn1)N1CCC2(CC1)CCN(c1cccc(-c3ccccc3)c1)CC2 -1.39%
Cc1ccc(S(=O)(=O)NC(=O)NC2CCCCC2)cc1 5.86%
COc1cc2nc(N3CCN(C(=O)OCc4ccccc4)C(C(=O)NC(C)(C)C)C3)nc(N)c2cc1OC (stereo not drawn) -38%
Cc1noc(C)c1-c1cc(N2CCN(C)CC2)ncn1 4.38%
CC(=O)Nc1c(I)c(NC(C)=O)c(I)c(C(=O)O)c1I -9.56%
CCC[C@H]1COCCS(=O)(=O)N1Cc1cccc(F)c1 -21.4%
O=C(Oc1ccccc1)c1cccc(C(=O)Oc2ccccc2)c1 -28.3%
Cc1ccc2c(/C=C/c3c[nH]c4ccccc34)ccnc2c1C 1.44%
CC(=O)Nc1ccc(S(=O)(=O)Nc2ccc([N+](=O)[O-])cc2)cc1 -6.33%
CN(C)C(=O)c1ccc(-c2ccc3ncnc(NCc4ccccc4)c3c2)cc1 3.42%
CN(Cc1ccco1)c1ncnc2ccc(-c3cccc(NS(C)(=O)=O)c3)cc12 6.4%
Cn1cc(C2=C(c3ccc(Cl)cc3Cl)C(=O)NC2=O)c2ccccc21 -7.98% and -22.5%
CC1OC(OCC2OC(Oc3c(-c4ccc(O)c(O)c4)oc4cc(O)cc(O)c4c3=O)C(O)C(O)C2O)[C@@H](O)C(O)C1O (stereo partly drawn) -11.2%
CN(C)CC(C)(C)CNC(=O)c1cnn(-c2nccc(-c3ccc4c(c3)OCO4)n2)c1-c1ccco1 -3.42%
O=c1c(CCc2ccccc2)nc2cnc(Nc3ccccc3)nc2n1C[C@H]1CCCO1 5.69%
Cn1c(SCC2CCCO2)nnc1C1CCN(Cc2ccccc2O)CC1 (stereo not drawn) -12.7%
COc1ccc(-c2c(-c3cc(OC)c(OC)c(OC)c3)noc2C)cn1 -27.6%
CC(=O)N1CCC2(CCN(Cc3cc(C(F)(F)F)cc(C(F)(F)F)c3)CC2)CC1 -13.4%
CC(C)OC(=O)Nc1ccc2nc(-c3cscn3)[nH]c2c1 -33.3%
COc1cc(OC)c(/C=C2/C(=O)Nc3ccccc32)c(OC)c1 -24.1%
COc1cccc2c(=O)c3ccoc3n(C)c12 -8.1%
CN1CCCC1CCO[C@@](C)(c1ccccc1)c1ccc(Cl)cc1 (stereo partly drawn) 2.9%
CC[C@H](C)[C@H]1O[C@]2(CC[C@@H]1C)C[C@@H]1C[C@@H](C/C=C(\C)[C@@H](O[C@H]3C[C@H](OC)[C@@H](O[C@H]4C[C@H](OC)[C@@H](O)[C@H](C)O4)[C@H](C)O3)[C@@H](C)/C=C/C=C3\CO[C@@H]4[C@H](O)C(C)=C[C@@H](C(=O)O1)[C@]34O)O2 -35.3%
CC(=O)OC1CCC2(C)C(=CCC3C2CCC2(C)C3C[C@@H]3O[C@]32C(C)=O)C1 (stereo partly drawn) -8.42%
Cc1cccc(Nc2cc(Cl)nc(SCC(=O)O)n2)c1C -7.24% [middle of 4 runs]
CC(C)(C)NC(=O)[C@H]1CN(Cc2cccnc2)CCN1C[C@@H](O)C[C@@H](Cc1ccccc1)C(=O)N[C@H]1c2ccccc2C[C@H]1O -31.4%
C=C1CCC(O)C/C1=C\C=C1/CCCC2(C)C1CCC2C(C)/C=C/C(C)C(C)C (stereo not drawn) -60%
CC(C)CN1CCCC2(CCN(C(=O)c3cc(C(F)(F)F)cc(C(F)(F)F)c3)CC2)C1 -33.7%
COc1ccccc1-c1cc(-n2ccnc2)ncn1 -0.886%
